In the supplement of paper PMC5499739:
Whole data set: some 16,000 sequences, median “Z-score” near -0.37, cut for the highest 2% near 3.2. The list shows a part of the results.

Tested on: RBM10 RRM1-ZnF (GST-tagged construct)
Test: RNAcompete 7-mer binding Z-score; higher = stronger binding preference
Method in brief: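 GST-tagged RBM10 constructs (20 pmol) and a designed pool of 241 399 RNAs up to 41 nt (1.5 nmol) were allowed to bind for 30 min at 4°C in 1 ml Hepes pH 7.8 buffer with glutathione Sepharose beads. After four 2-min washes at 4°C, bound RNA was identified by microarray hybridisation. Enrichment was scored per heptamer motif as a one-sided Z-score across the probes containing it.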

Point of comparison: AAUAGAG, “RNAcompete 7-mer binding Z-score” value 0.521. Against it:
- CGUGAGC — lower, -0.279
- CGCAACU — lower, -0.698
- UCGCAAU — lower, -0.545
- CUCUCCA — lower, -0.642
- ACGACGC — lower, -0.233
- UGUUUUU — lower, -0.409
- CCCUAUC — lower, -0.87
- GGGACAU — higher, 2.04
- CGACGUU — lower, -0.678
- GAGUGGA — higher, 3.26
- GUCCUAC — lower, -0.675
- CCGAUGA — lower, -0.249
- GCCUGAC — lower, -0.415
- UUUGGUA — lower, 0.365
- ACUACCC — lower, -0.837
- AGGCACC — lower, -0.334
- UACACAG — lower, -0.438
- CCGAGCA — lower, -0.539
- UAAGCAG — lower, 0.352
- UUAACAG — lower, -0.152
- AAGGCGU — higher, 0.985
- UUGUCAG — lower, -0.285
- AACAGUU — lower, -0.503
- ACUUACU — lower, -0.733
- UUCAGGU — lower, 0.261
- CAAUUCU — lower, -0.763
- AAAUCUC — lower, -0.795
- CUCAACU — lower, -0.798
- GACAUUG — lower, 0.196
- UUAGCUG — lower, -0.509
- ACGUUGC — lower, -0.47
- CCCUUAC — lower, -0.876
- CAUGUUC — lower, -0.698
- ACCCAGG — lower, -0.113
- AAGAUCU — lower, -0.652
- GGUUAGC — higher, 1.12
- AGGGUAG — higher, 3.72
- CUUAGCA — lower, -0.659
- ACACAGA — lower, -0.116
- UAUCGUU — lower, -0.694
- UCGUUAC — lower, -0.571
- GUCCCUC — lower, -0.574
- UACUUUG — lower, -0.886
- GACUUGA — lower, -0.496
- GCACAUU — lower, -0.431
- UUCAUAU — lower, -0.581
- AGCCUAC — lower, -0.854
- CGCGCUC — lower, -0.441
- GAGAGUU — lower, 0.179
- GGCGACU — lower, 0.108
- CAGAUCC — lower, -0.711
- GUAUAAA — lower, 0.0235
- AGGGCAG — higher, 2.11
- UCUCGCG — lower, -0.655
- UGAUAAA — lower, -0.00896
- CGGAGUA — higher, 1.06
- ACCCACG — lower, -0.532
- GGACUCA — lower, 0.0463
- CUCACUC — lower, -0.701
- GCGCGCC — lower, -0.175
- GCGAGCG — higher, 3.09
- CCAAGUA — lower, -0.399
- GCCCUCC — lower, -0.552
- UUUGCUG — lower, -0.47
- GGCCCGG — lower, 0.0463
- UAGUCGA — lower, -0.191
- AACGUGG — higher, 1.55
- GCUAGUU — lower, -0.357
- GAACGUU — lower, -0.363
- AAUAGCA — lower, -0.142
- UAAUACU — lower, -0.62
- UAAAACA — lower, -0.418
- UGUCCGU — lower, -0.532
- UAGGUUC — lower, 0.069
- GUCUUCU — lower, -0.724
- CACUCAG — lower, -0.363
- CUUCCAC — lower, -0.74
- ACUGAGG — higher, 0.966
- UGUUGAA — lower, 0.209
- UCUUCAA — lower, -0.623
- CUCAUAG — lower, -0.766
- GCAUACC — lower, -0.428
- UCUAAGU — lower, -0.539
- CAAAAUG — lower, -0.292
- CGAAUCC — lower, -0.636
- CCCCUUG — lower, -0.578
- AAGCGCU — lower, -0.366
- AAACCAC — lower, -0.519
- GUGGAUU — higher, 1.9
- UCAACCC — lower, -0.701
- CCGAAAU — lower, -0.688
- AACCAUA — lower, -0.714
- UAAAGAU — lower, -0.126
- UACCUUG — lower, -0.74
- UCAAACA — lower, -0.707
- CUUGUCU — lower, -0.873
- UAUUCGA — lower, -0.5
- GCGGGUU — higher, 2.76
- CCACUUC — lower, -0.743
- GCCGCUC — lower, -0.649
- ACCUUUA — lower, -0.919
- GACGAAU — lower, -0.0382
- UCAGGUA — higher, 0.628
- GUCACCU — lower, -0.48
- CGUACUG — lower, -0.493
- UACACCC — lower, -0.698
- AAUCGCC — lower, -0.88
- CGUUCAU — lower, -0.724
- ACCUUUG — lower, -0.88
- ACUACAG — lower, -0.47
- CAGUCUA — lower, -0.454
- UAGAGCU — lower, -0.272
- AAAACGG — higher, 1.4
- AUAGUCU — lower, -0.623
- GUAACAU — lower, -0.00896
- AUCUGGG — lower, 0.443
- UACGGAA — higher, 0.699
- CCAUCCA — lower, -0.717
- GUGCGCC — lower, 0.0593
- AGUCAGG — higher, 1.09
- UAUCGAU — lower, -0.513
- UGAUGCU — lower, -0.275
- UCCAUAG — lower, -0.73
- GUUUUUA — lower, -0.363
- CCGGCGU — lower, -0.353
- AUAGUUC — lower, -0.724
- UCUUAGC — lower, -0.737
- UGUGCCC — lower, -0.548
- CCUAAUA — lower, -0.763
- UCCGUUA — lower, -0.776
- UGGCAGA — higher, 0.92
- AAUAUAA — lower, -0.197
- GGGAGCG — higher, 3.35
- GGUCUCU — lower, -0.405
- GCCUAUA — lower, -0.623
- CGAUCGG — lower, 0.128
- CUCUUGG — lower, -0.259
- ACAUCAA — lower, -0.519
- AACUCUA — lower, -0.854
- CACAUGC — lower, -0.584
- ACCCCGU — lower, -0.386
- GUCGGAG — higher, 1.13
- GAGUCUA — lower, -0.165
- GGUUUCA — lower, 0.277
- GAUCGAA — lower, -0.0479
- GAAUUUC — lower, -0.607
- CCCGCCA — lower, -0.34
- UCAGUGA — lower, 0.209
- UAAUCCA — lower, -0.73
- ACUGCGA — lower, -0.36
- AAAACUG — lower, -0.0187
- AGUCUUC — lower, -0.652
- GCUCGCC — lower, -0.467
- CGACAGU — lower, -0.418
- CCGCGAA — lower, -0.561
- GCGCUCA — lower, -0.477
- UAUUCCG — lower, -0.698
- GCGUUAA — lower, -0.188
- UUAUAGC — lower, -0.513
- GUGGGAG — higher, 4.08
- UGGAUAU — higher, 1.17
- GUGAGGA — higher, 2.69
- UUGUAUA — lower, -0.526
- CAGACAA — lower, -0.415
- GUGUGAA — higher, 0.975
- CGAAAGC — lower, -0.487
- ACAUCGU — lower, -0.526
- UCCGUCA — lower, -0.746
- GGCGCCG — lower, -0.0122
- GAAUACG — higher, 0.55
- UAAAAAU — lower, -0.461
- GGUAACG — higher, 1.84
- AUCAACG — lower, -0.483
- GAGACGU — lower, 0.228
- UUCAGAG — lower, -0.532
- GCGAGAU — lower, 0.446
- UGCCUGA — lower, -0.539
- ACUCUGU — lower, -0.847
- GUGUCGG — higher, 1.03
- GAAGUGC — lower, 0.29
- CCGCUCU — lower, -0.782
- CCUAGAA — lower, -0.688
- CUCUGGC — lower, -0.451
